# In the supplement of paper PMC8728848:
# Some of the results follow.
# B1: PX14367B-bvu-516-23-516 (Bacteroides vulgatus) (protein)
# chain: LDTIPTTYVDAGSVFGKTGDAEKVLNGGWNYLMETFNSYANPGYGAMLRANDAMGSDVVLNSKYGFRTHNEFSAIYGKGGTNTLSWLLAYRVINDCNGVLDNIDAAEGTQADRNRIKGQALALRGFLYLHLASCYSFAIDKDPDAVCAPIYTQSTDETIAAEGKPASSVSEVYAQSINDLEEALELIPETYVRDAKHKIDNEVVLGILSRACLYARQWEKAKTYSDKLLAKDNYLMTESEYKAGFNSVDNKEWIWGHAQTNDQSNASYQFHYLDTTTKGSYYYSFNVDPYFRDLFEDGDYRKEMLFWATDPGADVESAAYVWMRNSKFRFRDIENQLGDIVLMRVAEIYLINAEAKAHLNDPDAINKLNDLKTARGAKTIHTNLSQQDLLETIWLERRKELWGEGFSLIDIIRNQQTVVRNAYPEGPIDYIYTDENGQTHTLKKKTQGHRFFNFPDKSAFCPNSKYYLYRITDSEELANKNLYKDHPKLSIYTK
# Legend:
# Assay in all cases: glycan array binding signal (z-score within array); higher = stronger binding
# Conditions in all cases: glycan notation: IUPAC condensed, linker removed
# [1] = molecular target: Fuc(a1-2)Gal
# Method in brief: (§1)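 Glycan array data came from 3228 arrays in the Consortium for Functional Glycomics database, and only arrays with an available protein sequence were kept. Glycan names were put into IUPAC-condensed notation, and columns mapping to the same glycan were averaged. The binding signal is a within-array Z-score, averaged across arrays of one protein sequence run at different concentrations or buffers and across linkers. A negative Z-score can be read as non-binding.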
# [2] = molecular target: Fuc(a1-2)Gal(b1-3)GalNAc
# Method in brief: as §1
# [3] = molecular target: Fuc(a1-2)Gal(b1-3)GalNAc(a1-3)[Fuc(a1-2)]Gal(b1-4)Glc
# Method in brief: as §1
# [4] = molecular target: Fuc(a1-2)Gal(b1-3)GalNAc(a1-3)[Fuc(a1-2)]Gal(b1-4)GlcNAc
# Method in brief: as §1
# [5] = molecular target: Fuc(a1-2)Gal(b1-3)GalNAc(b1-3)Gal
# Method in brief: as §1
# [6] = molecular target: Fuc(a1-2)Gal(b1-3)GalNAc(b1-3)Gal(a1-4)Gal(b1-4)Glc
# Method in brief: as §1
# [7] = molecular target: Fuc(a1-2)Gal(b1-3)GalNAc(b1-4)[Neu5Ac(a2-3)]Gal(b1-4)Glc
# Method in brief: as §1
# [8] = molecular target: Fuc(a1-2)Gal(b1-3)GlcNAc
# Method in brief: as §1
# [9] = molecular target: Fuc(a1-2)Gal(b1-3)GlcNAc(b1-2)Man(a1-3)[Fuc(a1-2)Gal(b1-3)GlcNAc(b1-2)Man(a1-6)]Man(b1-4)GlcNAc(b1-4)GlcNAc
# Method in brief: as §1
# [10] = molecular target: Fuc(a1-2)Gal(b1-3)GlcNAc(b1-2)Man(a1-3)[Fuc(a1-2)Gal(b1-3)GlcNAc(b1-2)Man(a1-6)]Man(b1-4)GlcNAc(b1-4)[Fuc(a1-6)]GlcNAc
# Method in brief: as §1
# [11] = molecular target: Fuc(a1-2)Gal(b1-3)GlcNAc(b1-3)Gal(b1-4)Glc
# Method in brief: as §1
# [12] = molecular target: Fuc(a1-2)Gal(b1-3)GlcNAc(b1-3)GalNAc
# Method in brief: as §1
# [13] = molecular target: Fuc(a1-2)Gal(b1-3)GlcNAc(b1-3)[Fuc(a1-2)Gal(b1-3)GlcNAc(b1-6)]GalNAc
# Method in brief: as §1
# [14] = molecular target: Fuc(a1-2)Gal(b1-3)GlcNAc(b1-3)[Gal(b1-4)GlcNAc(b1-6)]Gal(b1-4)Glc
# Method in brief: as §1
# [15] = molecular target: Fuc(a1-2)Gal(b1-3)GlcNAc(b1-3)[Neu5Ac(a2-6)Gal(b1-4)GlcNAc(b1-6)]Gal(b1-4)Glc
# Method in brief: as §1
# [16] = molecular target: Fuc(a1-2)Gal(b1-3)GlcNAc6S
# Method in brief: as §1
# [17] = molecular target: Fuc(a1-2)Gal(b1-3)[Fuc(a1-4)]GlcNAc
# Method in brief: as §1
# [18] = molecular target: Fuc(a1-2)Gal(b1-3)[Fuc(a1-4)]GlcNAc(b1-2)Man(a1-3)[Fuc(a1-2)Gal(b1-3)[Fuc(a1-4)]GlcNAc(b1-2)Man(a1-3)]Man(b1-4)GlcNAc(b1-4)GlcNAc
# Method in brief: as §1
# [19] = molecular target: Fuc(a1-2)Gal(b1-3)[Fuc(a1-4)]GlcNAc(b1-2)Man(a1-3)[Fuc(a1-2)Gal(b1-3)[Fuc(a1-4)]GlcNAc(b1-2)Man(a1-6)]Man(b1-4)GlcNAc(b1-4)[Fuc(a1-6)]GlcNAc(b1-4)[Fuc(a1-6)]GlcNAc
# Method in brief: as §1
# [20] = molecular target: Fuc(a1-2)Gal(b1-3)[Fuc(a1-4)]GlcNAc(b1-3)[Fuc(a1-3)[Gal(b1-4)]GlcNAc(b1-6)]Gal(b1-4)Glc
# Method in brief: as §1
# [21] = molecular target: Fuc(a1-2)Gal(b1-3)[Fuc(a1-4)]GlcNAc(b1-3)[Gal(b1-4)GlcNAc(b1-6)]Gal(b1-4)Glc
# Method in brief: as §1
# [22] = molecular target: Fuc(a1-2)Gal(b1-4)Glc
# Method in brief: as §1
# [23] = molecular target: Fuc(a1-2)Gal(b1-4)Glc6S
# Method in brief: as §1
# [24] = molecular target: Fuc(a1-2)Gal(b1-4)GlcNAc
# Method in brief: as §1
# [25] = molecular target: Fuc(a1-2)Gal(b1-4)GlcNAc(b1-2)Man
# Method in brief: as §1
# [26] = molecular target: Fuc(a1-2)Gal(b1-4)GlcNAc(b1-2)Man(a1-3)[Fuc(a1-2)Gal(b1-4)GlcNAc(b1-2)Man(a1-6)]Man(b1-4)GlcNAc(b1-4)GlcNAc
# Method in brief: as §1
# [27] = molecular target: Fuc(a1-2)Gal(b1-4)GlcNAc(b1-2)Man(a1-3)[Fuc(a1-2)Gal(b1-4)GlcNAc(b1-2)Man(a1-6)]Man(b1-4)GlcNAc(b1-4)[Fuc(a1-6)]GlcNAc
# Method in brief: as §1
# [28] = molecular target: Fuc(a1-2)Gal(b1-4)GlcNAc(b1-2)[Fuc(a1-2)Gal(b1-4)GlcNAc(b1-4)]Man(a1-3)[Fuc(a1-2)Gal(b1-4)GlcNAc(b1-2)Man(a1-6)]Man(b1-4)GlcNAc(b1-4)GlcNAc
# Method in brief: as §1
# [29] = molecular target: Fuc(a1-2)Gal(b1-4)GlcNAc(b1-3)Gal(b1-4)GlcNAc
# Method in brief: as §1
# [30] = molecular target: Fuc(a1-2)Gal(b1-4)GlcNAc(b1-3)Gal(b1-4)GlcNAc(b1-2)Man(a1-3)[Fuc(a1-2)Gal(b1-4)GlcNAc(b1-3)Gal(b1-4)GlcNAc(b1-2)Man(a1-6)]Man(b1-4)GlcNAc(b1-4)GlcNAc
# Method in brief: as §1
# [31] = molecular target: Fuc(a1-2)Gal(b1-4)GlcNAc(b1-3)Gal(b1-4)GlcNAc(b1-3)Gal(b1-4)GlcNAc
# Method in brief: as §1
# [32] = molecular target: Fuc(a1-2)Gal(b1-4)GlcNAc(b1-3)GalNAc
# Method in brief: as §1
# [33] = molecular target: Fuc(a1-2)Gal(b1-4)GlcNAc(b1-3)[Fuc(a1-2)Gal(b1-4)GlcNAc(b1-6)]GalNAc
# Method in brief: as §1
# [34] = molecular target: Fuc(a1-2)Gal(b1-4)GlcNAc(b1-3)[Fuc(a1-3)[Gal(b1-4)]GlcNAc(b1-6)]Gal(b1-4)Glc
# Method in brief: as §1
# [35] = molecular target: Fuc(a1-2)Gal(b1-4)GlcNAc(b1-6)GalNAc
# Method in brief: as §1
# [36] = molecular target: Fuc(a1-2)Gal(b1-4)GlcNAc6S
# Method in brief: as §1
# [37] = molecular target: Fuc(a1-2)Gal(b1-4)[Fuc(a1-3)]GlcNAc
# Method in brief: as §1
binder,measurement,setting,value
B1,glycan array binding signal (z-score),[1],-0.342
same,glycan array binding signal (z-score),[2],-0.349
same,glycan array binding signal (z-score),[3],-0.385
same,glycan array binding signal (z-score),[4],-0.284
same,glycan array binding signal (z-score),[5],-0.356
same,glycan array binding signal (z-score),[6],-0.248
same,glycan array binding signal (z-score),[7],-0.301
same,glycan array binding signal (z-score),[8],-0.323
same,glycan array binding signal (z-score),[9],2.86
same,glycan array binding signal (z-score),[10],-0.028
same,glycan array binding signal (z-score),[11],-0.294
same,glycan array binding signal (z-score),[12],-0.387
same,glycan array binding signal (z-score),[13],-0.174
same,glycan array binding signal (z-score),[14],-0.164
same,glycan array binding signal (z-score),[15],-0.287
same,glycan array binding signal (z-score),[16],-0.079
same,glycan array binding signal (z-score),[17],-0.305
same,glycan array binding signal (z-score),[18],-0.201
same,glycan array binding signal (z-score),[19],-0.237
same,glycan array binding signal (z-score),[20],-0.244
same,glycan array binding signal (z-score),[21],-0.358
same,glycan array binding signal (z-score),[22],-0.35
same,glycan array binding signal (z-score),[23],-0.226
same,glycan array binding signal (z-score),[24],-0.342
same,glycan array binding signal (z-score),[25],-0.373
same,glycan array binding signal (z-score),[26],0.969
same,glycan array binding signal (z-score),[27],-0.308
same,glycan array binding signal (z-score),[28],-0.126
same,glycan array binding signal (z-score),[29],-0.378
same,glycan array binding signal (z-score),[30],-0.179
same,glycan array binding signal (z-score),[31],-0.299
same,glycan array binding signal (z-score),[32],-0.282
same,glycan array binding signal (z-score),[33],-0.275
same,glycan array binding signal (z-score),[34],-0.367
same,glycan array binding signal (z-score),[35],-0.204
same,glycan array binding signal (z-score),[36],-0.225
same,glycan array binding signal (z-score),[37],-0.35
